Assay results: patent publication US20240122985A1, “ANTIBODIES, COMBINATIONS COMPRISING ANTIBODIES, BIOMARKERS, USES & METHODS” (KYMAB LIMITED, priority 2016, published 2024)

Biological target: T1, CHO-S expressed hOX40L (Homo sapiens, UniProt P23510)
T1 construct: CHO-S cells (optionally transfected with full length human OX40L); expressed in transfected cells
T1 sequence (P23510 1-183): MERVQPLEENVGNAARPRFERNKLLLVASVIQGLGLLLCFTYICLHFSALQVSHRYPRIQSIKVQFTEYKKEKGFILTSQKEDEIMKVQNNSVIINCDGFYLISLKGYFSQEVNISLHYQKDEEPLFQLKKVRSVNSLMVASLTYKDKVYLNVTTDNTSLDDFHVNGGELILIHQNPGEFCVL
Assay: Binding to CHO-S expressed hOX40L and receptor neutralisation (FACS)
Assay type: cell-based
Method: CHO-S cells expressing hOX40L or untransfected CHO-S cells, diluted in FACS buffer (PBS+1% w/v BSA+0.1% w/v NaN3) were distributed to a 96 well V-bottom plate (Greiner) at a density of 1×10^5 cells per well. Cells were washed with 150 μL of PBS and centrifuged at 300×g for 3 min. Supernatant was aspirated and 150 μL of PBS added. This wash step was repeated.
25 μL of hybridoma supernatant or purified antibody from hybridoma supernatant diluted in FACS buffer was added to the washed cells and incubated for 10-15 minutes. Reference Antibody or mouse IgG1 control antibody (Sigma) were diluted in FACS buffer to 20 μg/mL and 25 μL added to cells. 25 μL of human OX40R Fc (in-house) diluted to 1000 ng/mL in FACS buffer were then added to wells. Cells were incubated at 4° C. for 30 minutes. […]
To fix cells 100 μL 2% v/v paraformaldehyde was added and cells incubated for 30 minutes at 4° C., cells were pelleted by centrifugation 300×g and the plates and resuspended in 50 μL of FACS buffer. PE and APC signal intensity (geomean) was measured by flow cytometry using a BD FACS Array instrument.
% of control binding was calculated using geomean fluorescence as described in equation 1 where total binding was defined as reference antibody at 10 μg/mL and non-specific binding as mouse IgG1 antibody at 10 μg/mL. % receptor binding was calculated using Equation 3.

B1: 19H01 (hybridoma): anti-OX40L antibody from hybridoma; VH Seq ID No:94, VL Seq ID No:108 (antibody, V domains shown)
VH: [about 100 residues omitted here]DFLWFGEFPFDYWGQGTLVTVSS
VL: DIQMTQSPSSLSASVGDRVTITCRASQGISNYLAWYQQKPGKIPKLLIYAASTLQSGVPSRFSGSGSGTDFTLTISSLQPEDVATYYCQKYNSAPRTFGQGTKVEIK
modifications: 19H01 - VH Amino Acid Sequence; 19H01 - VL Amino Acid Sequence
FACS Binding: YES
